{"source": "paper PMC12242688", "about": "“ApoE3 Christchurch and tau interaction as a protective mechanism against Alzheimer's disease” (Alzheimer's & Dementia, 2025)", "binders": {"B1": {"name": "Recombinant His-tagged ApoE3 Christchurch variant, HEK-derived (natural protein)", "chain": "not shown", "notes": "apolipoprotein E3 (APOE3) with the Christchurch variant, human; cDNA as synthetic gene fragment in pcDNA3, secreted into the conditioned media; position 136 is codon 154 by current nomenclature (printed); numbers count on: the mature protein ('classic' nomenclature); Natural variant R136S (mature numbering); also called HEK-derived ApoE3Ch; source: HEK293 or Expi293F, transiently transfected, …"}}, "target": "T1, Recombinant human tau-441 (2N4R), monomers (human, UniProt P10636-8 1-441)", "T1 construct": "tau, human, isoform tau-441 (2N4R), printed length 441; also called tau monomers; monomeric tau; source: bought: rPeptide (cat. T-1001-2), produced in E. coli", "assay": "pull-down; recombinant human tau-441 at nominal 1.2 µM incubated 5 h in binding buffer with His-tagged ApoE3 or ApoE3Ch, captured on nickel beads; Western blot with tau-5 and anti-His under reducing conditions; repeated four times", "conditions": "both partners purified"}
{"binder": "B1", "values": [{"measurement": "binding result", "result": "binds"}]}
